Counter-ions that a name gives are not always drawn. ± gives the standard deviation of the averaged measurements. The full ranking holds about 2,600 compounds; the median of “total cell number (DAPI+ nuclei) relative to DMSO vehicle control” is about -1.4, and the lowest 2% start at about -23. This is one part of the list.
Test system: jimpy (Plp1 jimpy) mouse iPSC-derived oligodendrocyte progenitor cells
Test: total cell number (DAPI+ nuclei) relative to DMSO vehicle control (SDs above negative control mean); higher = more surviving cells
Details: 10 µM; 3 days

Q: C[C@H]1[C@H](OC(=O)CCC(=O)O)O[C@@H]2O[C@@]3(C)CC[C@H]4[C@H](C)CC[C@@H]1[C@@]24OO3 [Artesunate] was tested. Which total cell number did it give?
A: -7.08

Q: How did the total cell number turn out when O=C1c2c(O)cc(O)cc2O[C@H](c2cc(O)c(O)c(O)c2)[C@H]1O [Dihydromyricetin] was run?
A: -2.24

Q: How did the total cell number turn out when Cc1ccc(-c2c(-c3nn(C)c4ncnc(N5CC[C@H](N6CCCCC6)C5)c34)cnn2C)cc1 was run?
A: -2.1

Q: How did the total cell number turn out when O=C1OC(CN2CCOCC2)CN1/N=C/c1ccc([N+](=O)[O-])o1 (centres undefined) [Furaltadone HCl] was run?
A: -3.6

Q: CNCCCN1c2ccccc2CCc2ccccc21 [Desipramine hydrochloride] was tested. Which total cell number did it give?
A: -5.78

Q: With c1cn2cc(-c3ccc4cn[nH]c4c3)nc(Nc3ccc(N4CCOCC4)cc3)c2n1 as the compound, how does the total cell number read?
A: -8.75

Q: With CC(=O)OCC1=C(C(=O)O)N2C(=O)[C@@H](NC(=O)Cc3cccs3)[C@H]2SC1 [Cephalothin sodium] as the compound, how does the total cell number read?
A: -0.915

Q: For Clc1ccc(C(Cn2ccnc2)OCc2csc3c(Cl)cccc23)c(Cl)c1 (centres undefined) [Sertaconazole nitrate], which total cell number is on record?
A: -6.02

Q: For C=CCn1c(=O)c2cnc(Nc3ccc(N4CCN(C)CC4)cc3)nc2n1-c1cccc(C(C)(C)O)n1, which total cell number is on record?
A: -14.6

Q: With Cc1nc2n(c(=O)c1CCN1CCC(c3noc4cc(F)ccc34)CC1)CCCC2O (centres undefined) [Paliperidone] as the compound, how does the total cell number read?
A: -0.241

Q: With CCCCc1nc(Cl)c(CO)n1Cc1ccc(-c2ccccc2-c2nnn[nH]2)cc1 [Losartan Potassium (DuP 753)] as the compound, how does the total cell number read?
A: 3.6

Q: How did the total cell number turn out when CC1(C)S[C@@H]2[C@H](NC(=O)Cc3ccccc3)C(=O)N2[C@H]1C(=O)O [Penicillin G Sodium] was run?
A: 0.293

Q: O=C(Nc1cccc2cccnc12)c1ccc(N2C(=O)[C@@H]3[C@H](C2=O)[C@@H]2C=C[C@H]3C2)cc1 [IWR-1-endo] was tested. Which total cell number did it give?
A: -6.81

Q: For CCC(=O)OCC(=O)[C@@]1(OC(=O)CC)[C@@H](C)C[C@H]2[C@@H]3CCC4=CC(=O)C=C[C@]4(C)[C@@]3(Cl)[C@@H](O)C[C@@]21C [Beclomethasone dipropionate], which total cell number is on record?
A: 1.79

Q: How did the total cell number turn out when CN(C)c1ccccc1CN1CCCN(Cc2ccccc2N(C)C)C1c1ccncc1 was run?
A: -6.57

Q: For O=c1c2ccccc2nc2n1CCc1c-2[nH]c2ccccc12 [Rutaecarpine], which total cell number is on record?
A: -1.86 ± 1.9

Q: With O=C(/C=C/C=C/c1ccc2c(c1)OCO2)N1CCCCC1 [Piperine] as the compound, how does the total cell number read?
A: 1.48

Q: COCC(=O)O[C@]1(CCN(C)CCCc2nc3ccccc3[nH]2)CCc2cc(F)ccc2[C@@H]1C(C)C [Mibefradil dihydrochloride] was tested. Which total cell number did it give?
A: -8.78

Q: How did the total cell number turn out when O=C(Nc1cccc(Nc2ncc(Br)c(NCCc3cnc[nH]3)n2)c1)N1CCCC1 was run?
A: -24.3

Q: With COc1ccccc1N1CCN(CCCNc2cc(=O)n(C)c(=O)n2C)CC1 [Urapidil HCl] as the compound, how does the total cell number read?
A: -1.37

Q: How did the total cell number turn out when COc1ccccc1N1CCN(CCCNc2cc(=O)n(C)c(=O)n2C)CC1 [Urapidil hydrochloride] was run?
A: -1.36

Q: Which total cell number does the source give for O=C(CCCN1CCC(O)(c2cccc(C(F)(F)F)c2)CC1)c1ccc(F)cc1 [Trifluperidol hydrochloride] here?
A: -3.51

Q: Which total cell number does the source give for COc1nc(N)nc2c1ncn2[C@@H]1O[C@H](CO)[C@@H](O)[C@@H]1O [Nelarabine] here?
A: -2.12

Q: How did the total cell number turn out when CCc1cnn2c(NCc3ccc[n+]([O-])c3)cc(N3CCCC[C@H]3CCO)nc12 was run?
A: -9.73

Q: How did the total cell number turn out when C[C@@]1(c2cc(-c3cncnc3)c(F)cc2F)CCSC(N)=N1 was run?
A: -3.15

Q: With O=[N+]([O-])c1cc2nc(O)c(O)nc2cc1[N+](=O)[O-] as the compound, how does the total cell number read?
A: -0.0399

Q: For CC(=O)/C(C)=N/O [2,3-Butanedione monoxime], which total cell number is on record?
A: -0.361

Q: For CC(C)NCC(O)c1cc(O)cc(O)c1 (centres undefined) [Metaproterenol hemisulfate], which total cell number is on record?
A: -0.411

Q: C#CCN(C)CCCOc1ccc(Cl)cc1Cl [Clorgyline hydrochloride] was tested. Which total cell number did it give?
A: -0.0667

Q: O=C(O)CN(CCN(CC(=O)O)CC(=O)O)CCN(CC(=O)O)CC(=O)O [Diethylenetriaminepentaacetic acid] was tested. Which total cell number did it give?
A: -2.48

Q: How did the total cell number turn out when CC(C)(CO)Cc1cc(C(C)(C)C)c(O)c(C(C)(C)C)c1 was run?
A: 1.01

Q: Which total cell number does the source give for CCCCCCCCCCCCCCSCC(=O)O [Tetradecylthioacetic acid] here?
A: -0.695

Q: CN1CCC(NC(=O)c2cc(-c3c(O)cc(O)cc3Oc3ccc([N+](=O)[O-])cc3)on2)CC1 was tested. Which total cell number did it give?
A: -15.7

Q: For CC(C)NC[C@H](O)COc1cccc2[nH]ccc12 [S(-)-Pindolol], which total cell number is on record?
A: -2.38

Q: Cc1cnc(C(=O)NCCc2ccc(S(=O)(=O)NC(=O)NC3CCCCC3)cc2)cn1 [Glipizide] was tested. Which total cell number did it give?
A: -0.732 ± 0.42

Q: With Cc1cc(-c2ncc(CC(=O)Nc3ccc(-c4cnccn4)cn3)cc2C)ccn1 as the compound, how does the total cell number read?
A: 1.55

Q: For O=C1[C@H](CC[C@H](O)c2ccc(F)cc2)[C@@H](c2ccc(O)cc2)N1c1ccc(F)cc1 [Ezetimibe], which total cell number is on record?
A: -1.4

Q: How did the total cell number turn out when COc1ccccc1N1CCN(CCCCNC(=O)c2ccc3ccccc3c2)CC1 was run?
A: -5.13

Q: With CCN(CC)CCOc1ccc(C(=C(Cl)c2ccccc2)c2ccccc2)cc1 [Clomifene citrate] as the compound, how does the total cell number read?
A: -13.2

Q: Which total cell number does the source give for CCCCCOC(=O)Nc1nc(=O)n([C@@H]2O[C@H](C)[C@@H](O)[C@H]2O)cc1F [Capecitabine] here?
A: -1.2 ± 0.52

Q: COc1ccc2c(c1)CC[C@@H]1[C@@H]2CC[C@]2(C)[C@@H](NCCCCCCN3C(=O)CCC3=O)CC[C@@H]12 was tested. Which total cell number did it give?
A: -2.42

Q: How did the total cell number turn out when COc1ccc(NC(=O)c2ccc(-c3ccc(-c4noc(C)n4)cc3C)cc2)cc1N1CCN(C)CC1 was run?
A: -11.4

Q: CCCCNc1ccc(C(=O)OCCN(C)C)cc1 [Tetracaine HCl] was tested. Which total cell number did it give?
A: 0.452

Q: For CCCCNc1ccc(C(=O)OCCN(C)C)cc1 [Tetracaine hydrochloride], which total cell number is on record?
A: -1.02

Q: Which total cell number does the source give for N=C(N)NCCCCN [Agmatine sulfate] here?
A: -1.01

Q: Which total cell number does the source give for CN1CCOC(c2ccccc2)c2ccccc2C1 (centres undefined) [Nefopam HCl] here?
A: -1.99

Q: With C[C@H](CSC(=O)c1ccccc1)C(=O)N1C[C@@H](Sc2ccccc2)C[C@H]1C(=O)O [Zofenopril calcium] as the compound, how does the total cell number read?
A: -2.18

Q: With COc1ncc(-c2ccc3nccc(-c4ccnnc4)c3c2)cc1NS(=O)(=O)c1ccc(F)cc1F as the compound, how does the total cell number read?
A: -12

Q: Which total cell number does the source give for CN1CCC(=C2c3ccccc3CCc3sccc32)CC1 [Pizotifen Malate] here?
A: -9.56

Q: For CNCc1cc(-c2ccccc2F)n(S(=O)(=O)c2cccnc2)c1, which total cell number is on record?
A: -1.01

Q: For Cc1ccccc1C(OCCN(C)C)c1ccccc1 (centres undefined) [Orphenadrine Citrate], which total cell number is on record?
A: -3.22

Q: For Cc1ccccc1C(OCCN(C)C)c1ccccc1 (centres undefined) [Orphenadrine hydrochloride], which total cell number is on record?
A: -0.816

Q: With O=C1C(O)=C([C@H]2CC[C@H](c3ccc(Cl)cc3)CC2)C(=O)c2ccccc21 [Atovaquone] as the compound, how does the total cell number read?
A: -0.0933

Q: Which total cell number does the source give for CC(C)NCC(O)c1ccc(O)c(O)c1 (single isomer, unassigned; (-)) [(-)-Isoproterenol hydrochloride] here?
A: -0.816

Q: NCCNS(=O)(=O)c1cccc2c(Cl)cccc12 [A3 hydrochloride] was tested. Which total cell number did it give?
A: -3.79

Q: For O=C1CCc2ccc(OCCCCN3CCN(c4cccc(Cl)c4Cl)CC3)cc2N1 [Aripiprazole], which total cell number is on record?
A: -3.83

Q: COc1c2ccoc2cc2oc(=O)ccc12 [Bergapten] was tested. Which total cell number did it give?
A: -0.221

Q: CCCCCCCCCCCC1=C(O)C(=O)C=C(O)C1=O [Embelin] was tested. Which total cell number did it give?
A: 1

Q: How did the total cell number turn out when COC(=O)C1=C(C)NC(C)=C(C(=O)OCC(C)C)C1c1ccccc1[N+](=O)[O-] (centres undefined) [Nisoldipine] was run?
A: -16.3

Q: With COc1ccc2cc(OCC3(C(=O)O)CN(C(=O)c4ccc(F)cc4)C3)ccc2c1 as the compound, how does the total cell number read?
A: -1.3

Q: How did the total cell number turn out when Oc1cc(O)c(Cl)cn1 [Gimeracil] was run?
A: 0.777

Q: For CC1(C)CNc2cc(NC(=O)c3cccnc3NCc3ccncc3)ccc21 [Motesanib Diphosphate (AMG-706)], which total cell number is on record?
A: -8.1

Q: For OC[C@H]1O[C@@H](c2ccc(Cl)c(Cc3ccc(O[C@H]4CCOC4)cc3)c2)[C@H](O)[C@@H](O)[C@@H]1O, which total cell number is on record?
A: -1.9

Q: How did the total cell number turn out when COC(=O)C1=C(C)NC(C)=C(C(=O)OCCN(C)Cc2ccccc2)C1c1cccc([N+](=O)[O-])c1 (centres undefined) [Nicardipine hydrochloride] was run?
A: -2.62

Q: How did the total cell number turn out when COC(=O)C1=C(C)NC(C)=C(C(=O)OCCN(C)Cc2ccccc2)C1c1cccc([N+](=O)[O-])c1 (centres undefined) [Nicardipine HCl] was run?
A: 0.1

Q: Which total cell number does the source give for Cc1nc(C#Cc2ccnc(Cl)c2)c(C)n1-c1ccc(OC(F)(F)F)cc1 here?
A: -5.16

Q: With Cc1cc(Nc2cc(N3CCN(C)CC3)nc(/C=C/c3ccccc3)n2)n[nH]1 as the compound, how does the total cell number read?
A: -26.3

Q: COCCOc1ccc2c(c1)ncn2-c1ccc2cccc(N3CCC(N)CC3)c2n1 was tested. Which total cell number did it give?
A: -16.8

Q: For Cc1cc(-c2ccc(CC(=O)Nc3ccc(-c4cccnc4)cc3)cc2)ccn1, which total cell number is on record?
A: 6.95

Q: How did the total cell number turn out when CC(C)[C@H](N)C(=O)OCC(CO)OCn1cnc2c(=O)[nH]c(N)nc21 (some centres undefined) [Valganciclovir hydrochloride hydrate] was run?
A: -1.15

Q: How did the total cell number turn out when CC(C)[C@H](N)C(=O)OCC(CO)OCn1cnc2c(=O)[nH]c(N)nc21 (some centres undefined) [Valganciclovir HCl] was run?
A: -0.189

Q: Which total cell number does the source give for O=C(c1ccc(OCCCc2c[nH]cn2)cc1)C1CC1 [Ciproxifan hydrochloride] here?
A: -2.01

Q: With O=C(c1ccc(OCCCc2c[nH]cn2)cc1)C1CC1 [Ciproxifan] as the compound, how does the total cell number read?
A: -1.05

Q: For CCOc1ccc(NC(C)=O)cc1 [Phenacetin], which total cell number is on record?
A: -0.749

Q: How did the total cell number turn out when CN1CCC[C@@H]1CCO[C@](C)(c1ccccc1)c1ccc(Cl)cc1 [Clemastine Fumarate] was run?
A: -12.8

Q: CN1CCC[C@@H]1CCO[C@](C)(c1ccccc1)c1ccc(Cl)cc1 [Clemastine fumarate] was tested. Which total cell number did it give?
A: -8.02

Q: Which total cell number does the source give for COc1cc2ncnc(Nc3ccc(F)c(Cl)c3)c2cc1OCCCN1CCOCC1 [Gefitinib (ZD1839)] here?
A: -20.6

Q: For CN1CCN(c2nc(C3=C(c4c[nH]c5ccccc45)C(=O)NC3=O)c3ccccc3n2)CC1 [Sotrastaurin], which total cell number is on record?
A: -3.84

Q: With CC(C(=O)O)c1ccc(C(=O)c2cccs2)cc1 (centres undefined) [Suprofen] as the compound, how does the total cell number read?
A: -1.04
